This passage reports cytotoxicity call and growth inhibition call results from the antibiotic and cytotoxicity screens of Wong et al. (2023).

The subject of one test is HSkMC. The experiment in a line: cytotoxicity call (relative viability < 0.9). The following applies: 10 µM.
In a further test the test system is HepG2. Briefly: cytotoxicity call (relative viability < 0.9). The note with it: 10 µM.
The subject of another test is S. aureus RN4220. The experiment in a line: growth inhibition call (relative growth <= 0.2). The note with it: 50 µM.

Some of the results follow.

Consider `C[C@@H]1CN([C@@H](C)CO)C(=O)c2cc(NC(=O)CCCN(C)C)ccc2O[C@@H]1CN(C)Cc1ccc2c(c1)OCO2`, for which the cytotoxicity call in the test on HSkMC and in the test on HepG2 was “inactive” each time. The growth inhibition call in the test on S. aureus RN4220 is “inactive”.
Consider `O=C(C[C@H]1C[C@H]2c3cc(NC(=O)Nc4ccc(C(F)(F)F)cc4)ccc3O[C@H]2[C@@H](CO)O1)NC1CCCCC1`, for which the cytotoxicity call in the test on HSkMC and with HepG2 was “inactive” each time. Further, in the test on S. aureus RN4220, the growth inhibition call was “inactive”.
As for `C[C@H](CO)N1C[C@H](C)[C@H](CN(C)Cc2ccc(-c3ccccc3)cc2)Oc2ccc(NC(=O)NC3CCCCC3)cc2CC1=O`, the cytotoxicity call in the test on HSkMC and in the test with HepG2 was “inactive” each time. For the same compound, the growth inhibition call with S. aureus RN4220 is “inactive”.
Regarding `CN(C)CC(=O)N[C@@H]1CC[C@H](CC(=O)NCCN2CCCCC2)O[C@@H]1CO`, the cytotoxicity call in the test on HSkMC and in the test on HepG2 was “inactive” throughout. In the test on S. aureus RN4220, the growth inhibition call is “inactive”.
Consider `O=C(O)Cn1nnc(-c2ccccc2)n1`, for which the cytotoxicity call in the test with HSkMC and in the test on HepG2 was “inactive” in each case. Moreover, the growth inhibition call in the test on S. aureus RN4220 was “inactive”.
With `CO[C@@H]1CN(C)C(=O)c2cc(NC(=O)c3ccc(Oc4ccccc4)cc3)ccc2OC[C@@H](C)N(C(C)=O)C[C@H]1C`, the cytotoxicity call in the test with HSkMC and with HepG2 was “inactive” in each case. Moreover, the growth inhibition call with S. aureus RN4220 is “inactive”.
Take `CCCN(C)C[C@@H]1OCCCC[C@@H](C)Oc2ccc(NC(=O)Nc3cccc4ccccc34)cc2C(=O)N([C@H](C)CO)C[C@@H]1C`: the cytotoxicity call in the test on HSkMC and in the test on HepG2 was “inactive” each time. Also, the growth inhibition call in the test with S. aureus RN4220 was “inactive”.
Regarding `C[C@@H]1CCCCO[C@H](CN(C)C(=O)Nc2ccc(C(F)(F)F)cc2)[C@@H](C)CN([C@@H](C)CO)C(=O)c2cc(NC(=O)Nc3ccccc3)ccc2O1`, in the test with HSkMC, the cytotoxicity call is “inactive”. Moreover, in the test on HepG2, the cytotoxicity call was “active”. Further, the growth inhibition call with S. aureus RN4220 was “inactive”.
Consider `Nc1nc(O[C@@H](c2ccc(-c3cccc(F)c3)cc2)C(F)(F)F)cc(-c2ccc(C[C@H](N)C(=O)O)cc2)n1`, for which the cytotoxicity call in the test on HSkMC and in the test on HepG2 was “inactive” throughout. Moreover, the growth inhibition call in the test on S. aureus RN4220 was “inactive”.
On to `CC(=O)N(C)C[C@@H]1Oc2ncc(C#C[C@H](C)O)cc2C(=O)N([C@H](C)CO)C[C@H]1C`, for which the cytotoxicity call with HSkMC and with HepG2 was “inactive” throughout. Also, the growth inhibition call with S. aureus RN4220 was “inactive”.
Regarding `C[C@H]1CN([C@@H](C)CO)C(=O)c2cccc(NC(=O)c3nc4ccccc4s3)c2O[C@@H]1CN(C)Cc1ccc(Oc2ccccc2)cc1`, the cytotoxicity call in the test with HSkMC and in the test on HepG2 was “inactive” in each case. Further, the growth inhibition call in the test with S. aureus RN4220 is “inactive”.
Consider `CS(=O)(=O)CC(=O)N1C[C@H]2COC[C@@]2(COc2cccnc2)C1`, for which the cytotoxicity call in the test with HSkMC and in the test on HepG2 was “inactive” each time. For the same compound, the growth inhibition call in the test on S. aureus RN4220 was “inactive”.
As to `COc1ccc(S(=O)(=O)Nc2ccc3c(c2)CC(=O)N([C@@H](C)CO)C[C@H](C)[C@H](CN(C)Cc2ccc(C(=O)O)cc2)O3)cc1`, the cytotoxicity call with HSkMC and in the test with HepG2 was “inactive” throughout. Also, in the test on S. aureus RN4220, the growth inhibition call was “inactive”.
Consider `C[C@H]1CN([C@@H](C)CO)C(=O)c2cccc(NC(=O)c3ccncc3)c2O[C@@H]1CN(C)Cc1ccc(-c2ccccc2)cc1`, for which the cytotoxicity call in the test with HSkMC and in the test with HepG2 was “inactive” throughout. Further, in the test with S. aureus RN4220, the growth inhibition call was “inactive”.
`CN1C(=O)CO[C@H]2CN(C(=O)NCc3cccnc3)C[C@@H]21`: the cytotoxicity call in the test with HSkMC and with HepG2 was “inactive” each time. The growth inhibition call in the test on S. aureus RN4220 is “inactive”.
As for `COc1ccc(CCNC(=O)[C@@]2(Sc3ccc(C)cc3)CC(=O)N(Cc3ccccc3Cl)[C@@H]2c2ccc(CO)cc2I)cc1`, the cytotoxicity call in the test on HSkMC and with HepG2 was “inactive” each time. The growth inhibition call in the test with S. aureus RN4220 was “inactive”.
For `COCCN1C[C@H]2CN(Cc3cnn(C)c3)C[C@H]2C1=O`, the cytotoxicity call in the test on HSkMC and in the test with HepG2 was “inactive” each time. Also, in the test on S. aureus RN4220, the growth inhibition call is “inactive”.
`C[C@@H]1CCCCO[C@@H](CN(C)S(=O)(=O)c2cccs2)[C@H](C)CN([C@H](C)CO)C(=O)c2cc(NC(=O)NC3CCCCC3)ccc2O1`: the cytotoxicity call in the test on HSkMC was “inactive”. For the same compound, the cytotoxicity call in the test with HepG2 is “active”. For the same compound, in the test on S. aureus RN4220, the growth inhibition call is “inactive”.
On to `C[C@@H]1CN([C@H](C)CO)C(=O)c2cc(NC(=O)Nc3ccc4c(c3)OCO4)ccc2O[C@@H](C)CCCCO[C@H]1CN(C)C(=O)c1ccccc1`, for which the cytotoxicity call with HSkMC and in the test with HepG2 was “inactive” in each case. The growth inhibition call in the test with S. aureus RN4220 is “inactive”.
For the compound `C[C@@H]1CCCCO[C@H](CN(C)S(=O)(=O)c2cn(C)cn2)[C@@H](C)CN([C@H](C)CO)C(=O)c2cc(NS(=O)(=O)c3cn(C)cn3)ccc2O1`, the cytotoxicity call in the test with HSkMC and with HepG2 was “inactive” throughout. Moreover, the growth inhibition call in the test on S. aureus RN4220 was “inactive”.
With `O=C(CCCCCCC(=O)NO)NO`, the cytotoxicity call in the test on HSkMC and with HepG2 was “inactive” throughout. In addition, the growth inhibition call with S. aureus RN4220 is “inactive”.
As to `CC(=O)NCCCC[C@@H]1NC(=O)[C@H]2C[C@@H](C(=O)NCCCC[N+](C)(C)C)[C@@H](c3cccc(OCCO)c3)N2C1=O`, the cytotoxicity call in the test on HSkMC and with HepG2 was “inactive” each time. In addition, the growth inhibition call with S. aureus RN4220 is “inactive”.
With `C[C@H](CO)N1C[C@H](C)[C@H](CN(C)S(=O)(=O)c2cccc(C#N)c2)OCc2cn(nn2)CCCC1=O`, the cytotoxicity call with HSkMC and in the test with HepG2 was “inactive” in each case. Also, the growth inhibition call in the test on S. aureus RN4220 is “inactive”.
As to `C[C@@H]1CCCCO[C@H](CN(C)C(=O)CCC(F)(F)F)[C@@H](C)CN([C@@H](C)CO)C(=O)c2cc(NC(=O)C3CCCCC3)ccc2O1`, the cytotoxicity call with HSkMC and in the test on HepG2 was “inactive” each time. In addition, in the test with S. aureus RN4220, the growth inhibition call was “inactive”.
Take `CN(C)C(=O)N1CCNCC1`: the cytotoxicity call with HSkMC and in the test on HepG2 was “inactive” throughout. Besides, in the test on S. aureus RN4220, the growth inhibition call was “inactive”.
For the compound `CN1CCc2cccc3c2C1Cc1ccc(O)c(O)c1-3.Cl` (configuration not stated), in the test on HSkMC, the cytotoxicity call is “inactive”. In addition, the cytotoxicity call in the test with HepG2 was “active”. In addition, the growth inhibition call in the test with S. aureus RN4220 was “inactive”.
Regarding `COc1cccc(-c2cn(CC[C@H]3CC[C@@H](NC(=O)CN(C)C)[C@H](CO)O3)nn2)c1`, the cytotoxicity call with HSkMC and with HepG2 was “inactive” each time. In addition, the growth inhibition call with S. aureus RN4220 was “inactive”.
With `COc1ccc(C#Cc2ccc3c(c2)O[C@@H](CN(C)S(=O)(=O)c2ccccc2F)[C@@H](C)CN([C@@H](C)CO)S3(=O)=O)cc1`, the cytotoxicity call in the test on HSkMC (human skeletal muscle cells) and with HepG2 was “inactive” each time. Besides, in the test on S. aureus RN4220, the growth inhibition call was “inactive”.
On to `CC(C=CC=C(C)C=CC1=C(C)C(=O)C(O)CC1(C)C)=CC=CC=C(C)C=CC=C(C)C=CC1=C(C)C(=O)C(O)CC1(C)C` (configuration not stated), for which the cytotoxicity call with HSkMC and with HepG2 was “inactive” in each case. The growth inhibition call in the test on S. aureus RN4220 is “inactive”.
